Among all 330,000 compounds or so, about 300 (0.091%) were called active. This list was built around the results that the source calls inconclusive (neither active nor inactive); the mix of calls is not that of the screen. Calls come from the whole dose curve; as a rule, active = well fitted inhibition curve with a large enough effect; inconclusive = small, poorly fitted or top-dose-only effect, or effect the other way, or another doubt; inactive = no such curve, though single readings can be large or run the other way. Potencies of inconclusive entries are left out as doubtful fits.
These compounds were tested against Lysosomal acid glucosylceramidase (Homo sapiens) (UniProt P04062) (assay: qHTS Assay for Inhibitors and Activators of N370S glucocerebrosidase as a Potential Chaperone Treatment of Gaucher Disease). Details: N370S GC spleen homogenate, 4MU-glucoside fluorescence; activity change, negative = inhibition: at 59.4 µM (top of the series) unless noted.
Potency is the fitted concentration of half-maximal effect.
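Throughout, for activity change, negative = inhibition: 0% = full enzyme activity and -100% = no enzyme basal.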

SMILES | Potency | activity change, negative = inhibition
CCOC(=O)c1oc2ccccc2c1CN1CCN(C)CC1 | inconclusive [inhibitor, single point] | 
CCc1c(C)sc2nc3c(C(=O)N4CCOCC4)cc(C(=O)c4cc(F)ccc4O)cn3c(=O)c12 | inconclusive [inhibitor, partial curve] | 
Cc1cc(C)cc(NC(=S)N(CCN(C)C)Cc2cccs2)c1 | inconclusive [inhibitor, partial curve] | 
N#Cc1c(/N=C/N2CCCC2)oc(-c2ccccc2)c1-c1ccccc1 | inconclusive [activator, partial curve] | 
CN(C)CCNc1nc2sc3c(c2c(=O)n1Cc1ccccc1)CCCCC3 | inconclusive [inhibitor, partial curve] | 
COc1cccc(CNC(=O)Cn2nc(-c3ccc(Cl)cc3)ccc2=O)c1 | inconclusive [inhibitor, full curve, poor fit] | 
COc1ccc(-c2nc3c(c4c2C[C@H](c2ccccc2)OC4)CN(S(=O)(=O)c2ccc(C)cc2)CC3)c(C)c1 |  | inactive: -6.62% [at 12.8 µM]
COc1ccc(NC(=O)c2cn(-c3ccccc3)nc2-c2cc3ccccc3o2)cc1 |  | inactive: 3.78%
S=C(NCCCc1cnc[nH]1)NCCCN(Cc1ccc(Cl)c(Cl)c1)c1ccc(Br)cn1 | active: 1 µM | 
CCCc1cc(=O)oc2cc(OCC(=O)NC(Cc3c[nH]c4ccc(O)cc34)C(=O)O)c(Cl)cc12 (configuration not stated) |  | inactive: 4%
Cc1ccc(-c2ccc(=O)n(Cc3c(F)cccc3Cl)n2)cc1 | inconclusive [activator, single point] | 
Cc1ccnc(NC(=O)Nc2ccc3c(c2)OCO3)c1 | inconclusive [activator, partial curve] | 
CCN(CC)c1ccc(C(=O)NC(=S)N2CCN(Cc3ccc4c(c3)OCO4)CC2)cc1 | inconclusive [inhibitor, partial curve] | 
CCOC(=O)C1CCN(Cc2nc3ccccc3c(=O)n2-c2ccc(OCC)cc2)CC1 | inconclusive [inhibitor, single point] | 
Cn1cnc([N+](=O)[O-])c1Nc1ccc(O)cc1 |  | inactive: 18.2%
Cc1ccccc1NC(=O)CCCSc1nc2ccccc2s1 | inconclusive [activator, partial curve] | 
COc1ccc(Br)cc1CN(C)C(=O)c1ccccc1OCc1c(C)noc1C | inconclusive [activator, single point] | 
Cc1cc2cc(CNS(=O)(=O)N(C)C)ccc2[nH]1 | inconclusive [inhibitor, partial curve] | 
COc1ccccc1OCC(=O)NNc1c2ccccc2nc2ccccc12 | inconclusive [activator, single point] | 
CCOC(=O)C1=NN(C(=O)c2cccc(Br)c2)C(O)(C(C)(C)C)C1 (configuration not stated) | inconclusive [activator, partial curve] | 
COc1cccc([C@@H]2Oc3ccc(OC)cc3C(=O)[C@H]2OC(=O)NS(=O)(=O)c2ccc(C)cc2)c1 |  | inactive: 1.05%

SMILES | Potency | activity change, negative = inhibition
C#CCOCCOCCOCCNc1nc(N2CCN(C(=O)CCCCCCCCCCNC(=O)[C@@H](CCSC)n3cc(CCO)nn3)CC2)nc(N2CCN(C(=O)CCCCCCCCCCNC(=O)[C@H](CO)n3cc(CCCCCN)nn3)CC2)n1 | inconclusive [inhibitor, partial curve] | 
CCc1nnc(NC(=O)C2CCCN(c3nc4ccccc4s3)C2)s1 (configuration not stated) | inconclusive [activator, partial curve] | 
C#CCOCCOCCOCCNc1nc(N2CCN(C(=O)CCCCCCCCCCNC(=O)[C@@H](CCC(=O)O)n3cc(CCCCCN)nn3)CC2)nc(N2CCN(C(=O)CCCCCCCCCCNC(=O)[C@H](CCCCN)n3cc(C[C@@H](C)CC)nn3)CC2)n1 | inconclusive [inhibitor, partial curve] | 
Cc1ccc(CN2CCN(/N=C/c3sccc3C)CC2)c(C)c1 |  | inactive: 5.32%
C=CCOC(=O)C1=C[C@@H](c2coc3ccccc3c2=O)C[C@@H](OCc2ccc(CO)cc2)O1 | inconclusive [activator, single point] | 
CCOC(=O)c1cc(C)sc1/N=C/C1C(=O)CC(C)(C)CC1=O | inconclusive [activator, partial curve] | 
CNC(=S)N/N=C/c1ccc(-c2cccc(C(=O)O)c2)o1 |  | inactive: 0.556%
O=C(N/N=C/c1ccc(O)cc1)c1nc(-c2ccccc2)n(-c2ccccc2)n1 | inconclusive [inhibitor, partial curve] | 
Cc1cc2ncn(C(=O)c3c(-c4ccccc4)noc3C)c2cc1C | inconclusive [activator, partial curve] | 
O=C(O)c1ccc(N/N=C/C(Br)=C/c2ccccc2)cc1 |  | inactive: -6.12%
CCOc1ccc(-c2nnc3ccc(SCc4ccc(C(=O)OC)o4)nn23)cc1 | inconclusive [activator, single point] | 
CCCCCC(=O)NNC(=O)c1ccc(F)cc1 |  | inactive: 1.87%
O=C(Nc1cc(C(F)(F)F)ccc1N1CCCC1)c1ccc2c(c1)OCO2 | inconclusive [activator, partial curve] | 
CC1CCCCC1NC(=O)Cn1c(CN2CCCCC2)nc2ccccc2c1=O (configuration not stated) | inconclusive [inhibitor, single point] | 
CN(C)C(=O)CSc1nnc(C23CC4CC(CC(C4)C2)C3)o1 |  | inactive: -9.91%
Cc1nnc(C)c2c(C)n(-c3ccc(Cl)c(N)c3)c(C)c12 | inconclusive [inhibitor, partial curve, poor fit] | 
Cc1cc(C)c2cc(CN(Cc3nnnn3C3CCCCC3)CC3CCCO3)c(=O)[nH]c2c1 (configuration not stated) | inconclusive [activator, partial curve] | 
O=C(c1cccc(Oc2ccc([N+](=O)[O-])cc2Cl)c1)N1CCOCC1 | inconclusive [activator, single point] | 
COc1ccc(Cl)cc1NC(=O)C1CCN(C(=O)C2CC(=O)N(c3ccc(C)cc3)C2)CC1 (configuration not stated) |  | inactive: -22%
CC(OC(=O)CN(C)S(=O)(=O)c1ccc(Cl)cc1)C(=O)Nc1cccc(Cl)c1 (configuration not stated) |  | inactive: 2.91%
CN(C)CCCN(C(=O)c1ccc(S(=O)(=O)N2CCCCCC2)cc1)c1nc2ccc(Br)cc2s1 | inconclusive [inhibitor, single point] | 

SMILES | Potency | activity change, negative = inhibition
COc1ccc(C(CNC(=O)c2cccc(S(=O)(=O)Nc3ccccc3OC)c2)N2CCOCC2)cc1 (configuration not stated) | inconclusive [inhibitor, single point] | 
O=C(COC(=O)c1cc(S(=O)(=O)N2CCCCC2)ccc1N1CCOCC1)c1ccc(F)cc1 | inconclusive [activator, partial curve] | 
Cc1nn(CC(=O)NC(C)C(C)C)c(C)c1S(=O)(=O)N1CCCCC1 (configuration not stated) | inconclusive [inhibitor, full curve, poor fit] | 
CC1CCc2c(sc3nc(CN4CCN(S(=O)(=O)c5ccccc5[N+](=O)[O-])CC4)[nH]c(=O)c23)C1 (configuration not stated) | inconclusive [activator, partial curve] | 
O=C(CSc1nc2ccccc2c(=O)n1Cc1ccco1)Nc1cccc(O)c1 | inconclusive [activator, partial curve] | 
Cc1cccc(CCN(CC(=O)NC2CCCCC2)C(=O)c2csnn2)c1 | inconclusive [inhibitor, single point] | 
COc1ccc(C(=O)Nc2ccc3ccccc3c2)c(OC)c1 | inconclusive [activator, single point] | 
O=C(CCNS(=O)(=O)c1ccc(Cl)cc1)N1CCN(c2ccccn2)CC1 | inconclusive [inhibitor, single point] | 
CCCn1c2ccccc2c2nnc(SC(CC)C(=O)Nc3cc(C)on3)nc21 (configuration not stated) | inconclusive [activator, partial curve] | 
Cc1ccc(S(=O)(=O)CC(=O)c2ccccc2)cc1 |  | inactive: 9.59%
Cc1ccc(CS(=O)(=O)CCC(=O)NCCCN2CCCC2)cc1 | inconclusive [inhibitor, single point] | 
Cc1onc(-c2ccccc2Cl)c1C(=O)Nc1nnc(-c2ccc(Cl)cc2Cl)s1 | inconclusive [activator, partial curve] | 
Cc1cc(C)cc(N(CC(=O)NCc2ccccc2Cl)S(=O)(=O)c2c(C)[nH]c(=O)[nH]c2=O)c1 | inconclusive [inhibitor, partial curve] | 
Cc1cc(N)c2ccccc2[n+]1CCCCCCCCCCCCCC[n+]1c(C)cc(N)c2ccccc21 | inconclusive [inhibitor, partial curve] | 
c1ccc(C2=NN(c3ccccc3)CC2)cc1 | inconclusive [activator, partial curve] | 
Nc1c(C(=O)NC2CCCCC2)c2nc3ccccc3nc2n1/N=C/c1ccco1 |  | inactive: 4.55%
O=C(NC1CCS(=O)(=O)C1)/C(=C/c1ccc(Cl)cc1)NC(=O)c1ccccc1 (configuration not stated) | inconclusive [inhibitor, single point] | 
CCC1(CC)C(=O)C2=C3C1[C@H](C(=O)OC)CC(C(=O)OC)C[C@H]3[C@H]1C(=O)N(C)C(=O)[C@H]1[C@H]2C (some centres not stated) |  | inactive: -10%
Cc1onc(-c2ccccc2)c1CNC(=O)CN1C(=O)c2ccccc2C1=O | inconclusive [inhibitor, single point] | 
O=C(Nc1ccc2cn[nH]c2c1)c1ccccc1F | inconclusive [inhibitor, full curve, poor fit] | 

Source: PubChem BioAssay AID2101 (National Center for Advancing Translational Sciences (NCATS), 2009)
